# Experimental data as given in PubChem BioAssay AID1159614 (National Center for Advancing Translational Sciences (NCATS), 2016).
# Out of some 45,000 compounds screened, about 65 (0.1%) were called active. Calls come from the whole dose curve; as a rule, active = well fitted activation curve with a large enough effect; inconclusive = small, poorly fitted or top-dose-only effect; inactive = no such curve, though single readings can be large or run the other way. The list shows a part of the results.
# Molecular target: Galactocerebrosidase (Homo sapiens) (UniProt P54803)
# Assay: A Novel Cell-Based Assay to Identify Small Molecules for B -Galactocerebrosidase; note: nearly all actives have a fitted effect of over 65% in size; for activation: 0% is about no effect
# Settings: 145M-Twi-hGALC-G270D cells (Twitcher mouse brain line with human GALC G270D), HMU-beta-Gal fluorescence, 48 h; series mostly up to 57.5 µM; activation: at the top concentration
# Summary of the method: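 Fluorogenic HMU-b-Gal hydrolysis (0.1 mM final, pH 5.2 citrate-phosphate with 1 mg/mL sodium taurocholate; carbonate stop buffer) measures mutant GALC activity after compound treatment of live 145M-Twi Twitcher brain cells stably carrying human GALC-G270D, with wild-type GALC line alongside; activation sought.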
# Potency is the fitted concentration of half-maximal effect.
# Sequence of UniProt P54803 (P54803 whole entry, looked up): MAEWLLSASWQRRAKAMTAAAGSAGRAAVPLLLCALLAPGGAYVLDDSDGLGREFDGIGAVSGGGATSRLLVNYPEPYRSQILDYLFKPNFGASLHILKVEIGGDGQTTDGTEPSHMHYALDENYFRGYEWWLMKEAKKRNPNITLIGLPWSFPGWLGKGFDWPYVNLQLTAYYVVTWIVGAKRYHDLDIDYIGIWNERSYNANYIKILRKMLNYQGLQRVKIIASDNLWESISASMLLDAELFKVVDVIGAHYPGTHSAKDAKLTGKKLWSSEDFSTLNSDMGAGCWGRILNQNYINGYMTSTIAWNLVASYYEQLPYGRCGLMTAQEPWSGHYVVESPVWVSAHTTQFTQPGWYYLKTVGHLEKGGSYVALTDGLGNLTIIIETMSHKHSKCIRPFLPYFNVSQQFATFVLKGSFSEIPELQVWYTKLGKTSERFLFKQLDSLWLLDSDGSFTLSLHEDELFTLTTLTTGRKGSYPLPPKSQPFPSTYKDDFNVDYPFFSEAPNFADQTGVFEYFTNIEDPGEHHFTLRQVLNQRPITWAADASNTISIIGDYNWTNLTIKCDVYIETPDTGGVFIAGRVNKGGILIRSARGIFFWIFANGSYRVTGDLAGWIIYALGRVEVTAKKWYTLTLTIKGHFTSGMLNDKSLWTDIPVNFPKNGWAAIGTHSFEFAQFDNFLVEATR
Compound,activation,Potency
Cc1ccc(CNC(=O)CN2C(=O)C3(SCC(=O)N3c3ccc(F)cc3)c3ccccc32)cc1 (centres undefined),inactive: -23%,
CCCCCn1c(CCNC(=O)c2cccc(C)c2)nc2ccccc21,inactive: -18.1%,
CCC(=O)N1CCc2cc(CNS(=O)(=O)c3cccs3)ccc21,inactive: 1.85%,
CCCCOc1ccc(CNC(=O)c2ccc3c(c2)N(C)C(=O)C2CCCCN32)cc1 (centres undefined),inactive: -17.4%,
COc1ccc(CNC(=O)CCc2nc(-c3ccc(OC)cc3)no2)cc1,inactive: -10.1%,
CCc1ccc(CNC(=O)C2CCCN(S(=O)(=O)c3ccc4c(ccn4C)c3)C2)cc1 (centres undefined),inactive: -3.5%,
CCSc1nc2c([nH]c3ccccc32)c(=O)n1-c1ccc(F)cc1,inactive: -2.76%,
Cc1cc(C)c2c(n1)sc1c(=O)n(-c3ccccc3C(F)(F)F)nnc12,inactive: 2.56%,
Nc1c2ccccc2nc2ccccc12,inactive: -14.2%,
Cc1cccc(C(C)C)c1NC(=O)C(NS(=O)(=O)c1cccc2nsnc12)c1ccccc1 (centres undefined),inactive: -13.1%,
Cc1ccc(OCCSc2nc3ccc(NC(=O)c4ccc(F)cc4)cc3s2)cc1,inactive: -11%,
CCOC(=O)C(CC)Sc1c(CC)cnc2c1c(=O)n(C)c(=O)n2C (centres undefined),inactive: -5.09%,
COc1cccc(-c2cn3ncsc3n2)c1,inactive: -11.9%,
Cc1ccc(Cc2cn3cc(-c4ccc(F)cc4)nc3s2)cc1,inactive: -1.89%,
COc1ccc(-c2c(C)c3ccc(O)c(CN4CCCC4)c3oc2=O)cc1OC,,active: 39.8 µM
Cc1cccc(NC(=O)c2cc(S(=O)(=O)N3CCCCCC3)cn2C)c1C,inactive: 0.926%,
Cc1cc(C)n(-c2nc(C)c(C)c(=O)n2CC(=O)Nc2ccc(OC(F)(F)F)cc2)n1,inactive: -18.3%,
Cc1ccc(NC(=O)Cn2cc(C(=O)C3CC3)c3ccccc32)cc1C,inactive: -17.2%,
Cc1ccccc1CSc1ccc(-c2cccs2)nn1,inactive: 7.14%,
COc1ccc(OCc2nc(-c3ccc(-n4cccc4)cc3)no2)cc1,inactive: -5.83%,
CN1CCC(=C2c3ccccc3Sc3ccccc32)CC1,inactive: -10.7%,
Cc1nn(CC(=O)NC2CCC(C)CC2)c(=O)c2c1sc1ccccc12 (centres undefined),inactive: -2.45%,
Cc1cc(C)c(Nc2ncnc3c2cnn3C)c(C)c1,inactive: -14%,
Cc1ccc(NC(=O)CCc2c(C)nc3c(-c4ccc(F)cc4)c(C)nn3c2C)cc1F,inactive: -15.5%,
Cc1ccc2oc(-c3ccc(NC(=O)CCC(=O)O)cc3)nc2c1,inactive: -18.6%,

Compound,activation,Potency
CCn1cc2nc(SCC(=O)Nc3cc(OC)cc(OC)c3)n(Cc3ccc(Cl)cc3)c(=O)c2n1,inactive: -4.19%,
COc1cc(NC(=O)CN2CCN(c3ccc(F)cc3)CC2)cc(OC)c1,inactive: -18.6%,
CCOc1ccc(NC(=O)c2sc3nc4n(c(=O)c3c2C)CCC4)cc1,inactive: -8.37%,
COC(=O)N1CCCc2cc(S(=O)(=O)NCc3ccccc3)ccc21,inactive: 3.58%,
O=C(/C=C/c1ccccc1Cl)N1CCC(c2nc3ccccc3o2)CC1,inactive: -8.3%,
COc1ccc(C2CC(=O)Nc3c2c(=O)[nH]c2nc4ccccc4n32)cc1 (centres undefined),inactive: -9.13%,
Cc1cccc(C)c1NC(=O)c1ccc2c(c1)nnn2C1CCCC1,inactive: -15%,
CCOc1cc(-c2ccc(OC(=O)c3ccccc3Cl)c(OC)c2)cc(=O)c2c(C)oc(C)c12,inactive: -6.78%,
COc1ccc(-c2nn3c(=O)cc(CN4CCN(C(=O)/C=C/c5ccccc5)CC4)nc3s2)cc1,inactive: -4.36%,
CC(=O)c1ccc(N2CCN(S(=O)(=O)c3ccc(-c4coc(C)n4)cc3)CC2)cc1,inactive: -22.2%,
Cc1cc(C)cc(NC(=O)CSc2nc3c(c(=O)[nH]2)CN(Cc2ccc(F)cc2)CC3)c1,inactive: -17%,
CCn1cc(C(=O)Nc2cccc(Cl)c2)c2cc(OC)c(OC)cc2c1=O,inactive: 0.0587%,
CCCCN(CC)CCNC(=O)C1CCN(S(=O)(=O)c2cccc3nsnc23)CC1,inactive: -12.2%,
CCNC(=O)c1ccc(NC(=O)N2CCCCc3ccccc32)cc1,inactive: -6.42%,
COc1ccccc1N1CCN(C(=O)Cn2c(=O)n3nc(-c4cccc(F)c4)nc3c3ccccc32)CC1,inactive: -6.33%,
Cc1ccccc1COC(=O)c1nn(-c2ccccc2)nc1N,inactive: -10.2%,
COc1ccc(-c2cnc(C)o2)cc1S(=O)(=O)Nc1ccc(NC(C)=O)cc1,inactive: -16.3%,
O=C(CSc1nccn1-c1cccc(Cl)c1)Nc1ccc2c(c1)OCO2,inactive: -7.1%,
CCN(C(=O)C1CCN(S(=O)(=O)c2cc(Br)cc3c2N(C(C)=O)CC3)CC1)c1cccc(C)c1,inactive: -10.8%,
CCC(=O)C1=C(c2ccc(F)cc2)N(C(=O)CC)n2c(nnc2-c2ccc(OC)cc2)S1,inactive: -13.2%,
Cn1c(=O)oc2cc(S(=O)(=O)CCC(=O)N3CCN(c4ccccc4F)CC3)ccc21,inactive: -12.5%,
O=C(CCn1c(=O)c2cccn2c2cccnc21)N1CCN(c2ccccc2)CC1,inactive: -11.7%,
CCc1nn(CC(=O)N2CCN(c3ccc(OC)cc3)CC2)c(=O)c2cc3sccc3n12,inactive: 1.63%,
CC[C@@]1(c2ccccc2)NC(=O)N(C)C1=O,inactive: -13.8%,
CC(CCc1ccccc1)NC(=O)Cn1ncc2c3ccccc3n(Cc3ccccc3F)c2c1=O (centres undefined),inactive: -8.27%,

Compound,activation,Potency
Cc1nc2ccccc2c(=O)n1-c1ccc(NC(=O)c2ccccc2[N+](=O)[O-])cc1,inactive: -5.84%,
CCN(Cc1ccccc1)C(=O)Cn1c(=O)n(-c2ccccc2)c(=O)c2c1c1cc(C)ccc1n2C,inactive: -9.29%,
O=C(CSc1nc(=O)[nH]c2c1CCC2)NCc1ccccc1Cl,inactive: -9.65%,
CCc1ccc(CSc2nc(-c3ccccc3F)nc3c2Cc2c(CO)cnc(C)c2O3)cc1,inactive: -15.2%,
Cc1ccc(-c2cc(C(=O)Oc3ccc(C#N)cc3)no2)cc1,inactive: -5.26%,
CCn1c(SCC(=O)Nc2ccccc2C(=O)OC)nc2ccsc2c1=O,inactive: -8.56%,
CCC(=O)NNc1ncnc2c1cnn2-c1ccc(C)c(Cl)c1,inactive: -7.58%,
CCC(C)NC(=O)c1nn(-c2ccc(C)cc2)nc1CO (centres undefined),inactive: 6.13%,
COc1ccc(OC(=O)c2nc(SCc3ccccc3F)ncc2Cl)cc1,inactive: -12.3%,
Cc1ccc(NC(=O)Cn2c(=O)n(Cc3ccco3)c(=O)c3oc4ccccc4c32)cc1C,inactive: -17.7%,
O=C(Nc1ccc2nc(SCC(=O)N3CCOCC3)sc2c1)c1cccc(Br)c1,inactive: -11%,
Cc1cccc(CNC(=O)C2CCC(CNS(=O)(=O)c3ccc4c(c3)CCCC(=O)N4)CC2)c1 (centres undefined),inactive: -15%,
CC(C)(C)c1ccc(C(=O)NCC(c2cccnc2)N2CCc3ccccc3C2)cc1 (centres undefined),inactive: -24.3%,
Cc1cccc(CN2C(=O)c3ccccc3Sc3ccc(C(=O)NC4CCCCC4)cc32)c1,inactive: -11.2%,
Cc1cccc(-c2nc(C)c(CCNC(=O)C(=O)Nc3ccccc3C#N)s2)c1,inactive: -8.75%,
COc1ccc(-n2nnnc2C2CCN(S(=O)(=O)c3ccc(NC(C)=O)cc3)CC2)cc1,inactive: -2.03%,
CCn1c(=N)c(C(=O)NCc2ccccc2)cc2c(=O)n3cccc(C)c3nc21,inactive: -9.36%,
COc1ccc(Cl)cc1S(=O)(=O)NCc1ccc2c(c1)CCN2C(=O)c1cccc(C)c1,inactive: -16.6%,
CC(C)c1ccc(C2NC(=O)c3n[nH]c(-c4cccs4)c32)cc1 (centres undefined),inactive: -8.96%,
Cc1ccc(NC(=O)CCC(=O)N2Cc3ccccc3Oc3ncccc32)c(C)c1,inactive: -7.84%,
Cc1ccc(C(C)C)c(OCC(O)CN2CCN(c3ccccc3F)CC2)c1 (centres undefined),inactive: -2%,
Cc1cccc(NC(=O)CSc2nc(-c3ccccc3)cc(=O)[nH]2)c1C,inactive: -6.35%,
CCOc1ccc(CCNC(=O)CN2C(=O)COc3ccc(S(=O)(=O)N4CCCC4)cc32)cc1,inactive: -13%,
Cc1ccc(S(=O)(=O)N(CC(=O)Nc2ccc(Cl)cc2Cl)c2ccccc2C)cc1,inactive: -21%,
COc1ccccc1C(=O)Nc1cccc(C(=O)OCc2cc(=O)n3ccsc3n2)c1,inactive: -20.8%,

Compound,activation,Potency
Cc1ccc(CNC(=O)C(C)n2nc(C)n3c(cc4sccc43)c2=O)cc1 (centres undefined),inactive: -16.5%,
CCOC(=O)C1CCCN(C(=O)c2ccc3c(c2)sc2nc(-c4ccc(CC)cc4)cn23)C1 (centres undefined),inactive: -2.18%,
Cc1oc(-c2ccc(C(=O)NCc3cccc(F)c3)cc2)nc1COc1ccccc1,inactive: -12.9%,
COC(=O)c1ccc2c(=O)n(CCCCCC(=O)NCCc3ccc(Cl)cc3)c(=O)[nH]c2c1,inactive: -24%,
CCOC(=O)c1ccc(N2C(=O)c3n[nH]c(-c4ccco4)c3C2c2cccc(OC)c2)cc1 (centres undefined),inactive: -2.57%,
Cc1ccccc1NC(=O)CSc1nc2ccccc2c2nc(CCn3cncc3C)nn12,inactive: -15.5%,
CCn1c(C(=O)N2CCC(C(=O)NCCc3ccc(C)cc3)CC2)cc2sccc21,inactive: -15.5%,
Cc1ccc(Cn2ccnc2SCC(=O)NCc2ccccc2Cl)cc1,inactive: 5.2%,
N#Cc1c(C(F)(F)F)cc(-c2ccc(F)cc2)nc1SCC(=O)Nc1ccccc1,inactive: -18.4%,
O=C1CC(c2nc(-c3ccccc3)no2)CN1c1ccccc1 (centres undefined),inactive: -2.15%,
CCOc1ccc(N2CC(c3nc4ccccc4n3CCOc3ccccc3OC)CC2=O)cc1 (centres undefined),inactive: -20.6%,
CCc1nc2ccc(C(=O)NCc3cc(OC)ccc3OC)cc2nc1CC,inactive: -13.6%,
COC(=O)c1nc(Cl)c(Cl)nc1N,inactive: -15.2%,
Cc1cccc(NS(=O)(=O)c2ccc3c(c2)CC(C)N3C(=O)C2CCC2)c1C (centres undefined),inactive: -11.5%,
O=C(CCS(=O)(=O)c1ccc(Br)cc1)Nc1ccc(F)cc1F,inactive: -3.65%,
CCc1ccc(CNc2ccc3c(c2)ncn3C(C)(C)C)cc1,inactive: -15.4%,
Cc1ccc(-c2nc3ncccn3c2Nc2ccc3c(c2)OCCO3)cc1,inactive: -6.13%,
COc1cccc2c1cc1c(=O)n(CC(=O)N3CCN(c4ccccc4)CC3)nc(C)n12,inactive: -4.37%,
Cc1cc(OC(C)C(=O)Nc2cccc(-c3nc4ccccc4o3)c2)cc(C)c1Cl (centres undefined),inactive: 0.233%,
Cc1ccc(Cn2c(C)c3cnn(CC(=O)NCc4ccccc4)c(=O)c3c2C)cc1,inactive: 0.961%,
CC(=O)N1CCc2cc(S(=O)(=O)CCC(=O)Nc3ccc(C)cc3Br)ccc21,inactive: -14.5%,
CCN(CC)c1ccc(NC(=O)c2cnn(-c3ccccc3)c2-n2cccc2)c(C)c1,inactive: -10.9%,
COc1ccc(-c2nc(CSCC(=O)N3CCN(c4cc(Cl)ccc4C)CC3)c(C)o2)cc1,inactive: -30.5%,
CCOc1ccc(CCNC(=O)CS(=O)(=O)Cc2nc(-c3ccc(OC)cc3)oc2C)cc1,inactive: -23.3%,
